# Test results reported in PubChem BioAssay AID624296 (National Center for Advancing Translational Sciences (NCATS), 2012).
# About 9,900 (2.8%) of roughly 350,000 compounds were called active. Inconclusive means that the source gave no clear call. Such entries were picked first, then a sample of the others. Calls come from the whole dose curve; as a rule, active = well fitted activation curve with a large enough effect; inconclusive = small, poorly fitted or top-dose-only effect; inactive = no such curve, though single readings can be large or run the other way. No potency is given beside an inconclusive call; the fits are too rough.
# Experiment: A quantitative high throughput screen for small molecules that induce DNA re-replication in MCF 10a normal breast cells. Note: nearly all actives have a fitted effect of over 50% in size.
# Details: MCF 10A DNA re-replication, Hoechst nuclear intensity, 48 h; series mostly up to 46.1 µM
# Potency is the fitted concentration of half-maximal effect; tags give direction and shape of the fitted curve.
row,SMILES,Potency
1,COc1cc(CCC(=O)OCC(=O)NCC2CCCCC2)cc(OC)c1OC,inactive
2,N#CC1=C(N)Oc2cc(N)ccc2C1c1ccccc1 (stereo not drawn),"inconclusive [activator, single point]"
3,CC(C)NC(=O)c1ccc2c(c1)N(CC(=O)N1CCCCC1)C(=O)C(C)(C)O2,inactive
4,O=C(Nc1cccc(O)c1)c1cc2nc(-c3ccccc3)cc(-c3ccccc3)n2n1,"inconclusive [activator, partial curve, poor fit]"
5,c1ccc(CCN2CCN(c3ncnc4c3cnn4-c3ccccc3)CC2)cc1,"inconclusive [activator, partial curve]"
6,Nc1ccc(C(=O)OCC(=O)N2c3ccccc3Sc3ccccc32)cc1[N+](=O)[O-],"inconclusive [activator, full curve, poor fit]"
7,Cc1cc(-c2nnc(-c3cc4ccccc4oc3=O)o2)c(C)n1-c1ccccc1,active: 5.8 µM
8,Cc1cc(C)nc(SCC(=O)c2ccc3c(c2)OCCO3)n1,active: 14.6 µM
9,COc1ccc(C(=O)/C=C/c2cccs2)c(OC(=O)c2cccc([N+](=O)[O-])c2)c1,"inconclusive [activator, single point]"
10,COc1cccc(/C=C/C(=O)OCC(=O)Nc2ccc(S(=O)(=O)N3CCCC3)cc2)c1,"inconclusive [activator, single point]"
11,COc1ccc(NCC(=O)Nc2cccc(C(F)(F)F)c2)cc1S(=O)(=O)N1CCOCC1,inactive
12,CCCc1cc(=O)oc2cc(OCC(=O)NCCc3c[nH]c4ccccc34)ccc12,"inconclusive [activator, single point]"
13,COc1ccc(-c2cn3c(C)c(C(=O)Nc4ccncc4)sc3n2)cc1,"inconclusive [activator, single point]"
14,CCCCCCn1cc(C(=O)O)c(=O)c2cc(F)c(N3CCCCC3)cc21,"inconclusive [activator, partial curve, poor fit]"
15,CC(C)CN(C(=O)COC(=O)c1cnc(Cl)c(Cl)c1)c1c(N)n(Cc2ccccc2)c(=O)[nH]c1=O,"inconclusive [activator, single point]"
16,COc1ccc(OC)c(-c2cc(C(=O)N/N=C/c3ccc(F)cc3)c3ccccc3n2)c1,"inconclusive [activator, single point]"
17,O=C(c1ccc(CSc2nc3ccncc3[nH]2)cc1)N1CCCCCC1,inactive
18,CCOC(=O)c1ccc(NC(=O)C2CCCN(S(=O)(=O)c3ccc(F)cc3)C2)cc1 (stereo not drawn),"inconclusive [activator, full curve]"
